According to paper PMC12040169 (PLOS Biology, 2025):
The list shows a part of the results.

Tested on: T1, C. trachomatis L2/434/Bu expressing GFP (CTL2-GFP)
T1 construct: L2/434/Bu GFP intracellular growth in HeLa cells
Design: species or system HeLa; C. trachomatis total inclusion area by high-content imaging, normalised to DMSO
Settings: total inclusion area; 28.5 h, 10 µM; inhibitor
Procedure, shortened: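 Post-fluorescence-read fixation, DNA staining with Hoechst and high-content imaging; GFP inclusion area and number per well, and nuclei counts, used as proxies for bacterial growth and host viability.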

Compared with `O=C(C(CO)c1ccccc1)N1CCC2(CCN(CCCCOc3ccccc3)C2)C1` (stereo not shown) [CBK161722], `O=C(O)C1CCN(C(=O)NCCOc2ccccc2)CC1` [CBK156072] is higher in “% of control remaining” value: 89.5733 for the first, 101.111 for the second.

Compared with `Cc1nc2cc(C(=O)N3CCC(c4ccncc4)CC3)ccc2s1` [CBK283513], `O=C(Nc1ccc(N2CCCCC2)c2ccncc12)c1cccc(-n2cnnn2)c1` [CBK297754] is higher in “% of control remaining” value: 60.6652 for the first, 104.517 for the second.

Going from `O=C(CN1CCN(CCCc2c[nH]c3ccc(F)cc23)CC1)N(c1ccccc1)C1CCCCC1` [CBK074710] to `O=C(CCc1ccccc1)N1CCCC1c1cccc(Cc2ccccc2F)n1` (stereo not shown) [CBK286208], the “% of control remaining” value rises from 75.8622 to 86.5052.

First: O=C(NC[C@H]1O[C@@H](CC(=O)N2CCN(c3ccc(F)cc3)CC2)[C@H](O)[C@@H]1O)C1CC1 [CBK288921]
Second: C#CCNC(=O)C1CCN(c2nc3ccccc3n2CC=C)CC1 [CBK283925]
The “% of control remaining” value of the first is higher: 103.77 for the first, 71.8878 for the second.

Going from `O=c1[nH]c(=O)n([C@H]2C[C@@H](O)[C@@H](CO)O2)cc1CO` [CBK201332] to `Cn1c2c(c(=O)n(C)c1=O)[C@H]1[C@H](O)[C@H](O)C[C@H]1[C@@H](C(O)c1ccccc1)N2` (stereo partly shown) [CBK303236], the “% of control remaining” value falls from 100.438 to 69.0001.

First: Cc1n[nH]c(C)c1CCCCCOc1ccccc1F [CBK025736C]
Second: COCCN1C(=O)C2(CC(=O)N(CCCN3C(=O)CCC3=O)C2=O)c2ccccc21 (stereo not shown) [CBK075333]
The “% of control remaining” value of the first is lower: 62.1908 for the first, 92.9888 for the second.

Going from `Cc1ccc(OCC(=O)N2CCN(S(=O)(=O)c3ccc([N+](=O)[O-])cc3)CC2)cc1` [CBK264267] to `COc1ccc(CNc2nc(-c3ccc(C)cc3)nn2C(=O)c2cccc([N+](=O)[O-])c2)cc1` [CBK268546], the “% of control remaining” value falls from 96.9926 to 72.259.

Compared with `O=c1cc(C(F)(F)F)c2ccc(OCc3ccc(Cl)cc3)cc2o1` [CBK058200], `Oc1cccc(-c2nccnc2NCc2cccc(C(F)(F)F)c2)c1` [CBK037014] is lower in “% of control remaining” value: 85.7208 for the first, 84.8907 for the second.

First: COc1cc(C)c(Nc2cc(-c3ccc(C(N)=O)cc3)ncn2)cc1OC [CBK090784]
Second: NC(=O)c1ccccc1-c1cnc(N)c(-c2ccc(O)cc2)n1 [CBK115536]
The “% of control remaining” value of the first is higher: 94.3616 for the first, 82.2637 for the second.

Going from `Cc1nccn1CCCn1cncc1-c1ccc2c(c1)CC(C)N2C` (stereo not shown) [CBK281818] to `Cc1ccc(-n2cc(CN(C)CC3(C)COC3)cn2)cc1` [CBK281720], the “% of control remaining” value rises from 87.4098 to 103.44.

First: O=c1cc(CN2CCC(Cc3ccccc3)CC2)[nH]c(=O)[nH]1 [CBK126388]
Second: CC(C)(C)c1ccc(NC(=O)N2CCCN(Cc3ccccc3)CC2)cc1 [CBK085876]
The “% of control remaining” value of the first is higher: 104.623 for the first, 36.1413 for the second.

Going from `Nc1cccc(Sc2ncccn2)c1` [CBK085844] to `CN1Cc2ccccc2-c2ccc(O)cc21` [CBK017804], the “% of control remaining” value falls from 92.0101 to 58.7526.

Compared with `COc1ccc(/C=C(/C(=O)NCc2ccc(Cl)cc2Cl)c2ccccc2)cc1` [CBK265256], `O=C(CN1C(=O)S/C(=C\c2ccc(OCc3ccccc3F)cc2)C1=O)c1ccc(Cl)cc1` [CBK264632] is lower in “% of control remaining” value: 100.94 for the first, 97.2246 for the second.

First: CCn1c(CN2CCC(c3cc(O)nc(N)n3)C2)nc2c(F)cccc21 (stereo not shown) [CBK304189]
Second: O=C(C1CCCCC1)N1CC(n2nc(-c3cccs3)ccc2=O)C1 [CBK283346]
The “% of control remaining” value of the first is higher: 79.7841 for the first, 77.7068 for the second.

Compared with `Cc1nc(NS(=O)(=O)Cc2ccccc2[N+](=O)[O-])sc1C(=O)O` [CBK045564], `Cc1ccc2cc(S(=O)(=O)NCCC(=O)O)ccc2c1` [CBK267569] is lower in “% of control remaining” value: 115.14 for the first, 95.8529 for the second.

Compared with `CS(=O)(=O)c1ccc(-c2cnc3[nH]c(=O)n(-c4ccc5[nH]ccc5c4)c3n2)cc1` [CBK064691], `COc1cc(C)ccc1S(=O)(=O)Nc1cccc2cc[nH]c12` [CBK159511] is lower in “% of control remaining” value: 110.754 for the first, 108.206 for the second.

Compared with `Cc1ccccc1C1(O)CCN(CC(O)c2ccc3c(c2)OCCCO3)CC1` (stereo not shown) [CBK286332], `CCNC(=O)N1CC2(CCN(CC(N)=O)CC2)c2ccccc21` [CBK126701] is higher in “% of control remaining” value: 97.262 for the first, 120.994 for the second.

First: O=C(O)c1cn(CCN2C(=O)c3ccccc3C2=O)nn1 [CBK286543]
Second: O=C(CCS(=O)(=O)Cc1ccccc1)n1nnc2ccccc21 [CBK268324]
The “% of control remaining” value of the first is higher: 86.469 for the first, 84.897 for the second.

Going from `O=C(O)CCCC(=O)N1N=C(c2cccs2)CC1c1cn(-c2ccccc2)nc1-c1ccccc1` (stereo not shown) [CBK296124] to `OC(Cn1ccc2ccccc21)Cn1c(Cc2ccccc2)nc2ccccc21` (stereo not shown) [CBK267954], the “% of control remaining” value falls from 137.54 to 117.804.

First: Cc1csc(NC(=O)c2ncoc2-c2cccs2)n1 [CBK283972]
Second: O=C1NCCNC(=O)C2(C/C=C/COc3ccccc31)CCN(C(=O)c1cncs1)CC2 [CBK292023]
The “% of control remaining” value of the first is higher: 107.688 for the first, 92.3497 for the second.

Compared with `CCN(CC)C(=O)C1CCCN(C(=O)NCc2cc(OC)c(OC)c(OC)c2)C1` (stereo not shown) [CBK156130], `CCOC(=O)N1CCC(NS(=O)(=O)c2ccc(OC)c(OC)c2)CC1` [CBK045464] is lower in “% of control remaining” value: 86.9815 for the first, 68.7296 for the second.

Going from `COc1ccc(CN2CCC(C(=O)NC(c3ccc(OC)nc3)c3ccccc3C)CC2)cc1` (stereo not shown) [CBK081445T] to `C[C@H](Nc1cncc(-c2ccc3ccccc3c2)n1)c1ccccc1` [CBK065799], the “% of control remaining” value rises from 81.5612 to 107.442.

First: Cc1cc(C)n(-c2nc3ccccc3nc2N2CCN(S(=O)(=O)c3ccccc3)CC2)n1 [CBK269399]
Second: O=[N+]([O-])c1ccc(CN2CCN(C/C=C/c3ccccc3)CC2)o1 [CBK026551]
The “% of control remaining” value of the first is higher: 114.505 for the first, 78.538 for the second.

Compared with `CN1CCN(C)C(COc2cccc(C(F)(F)F)n2)C1` (stereo not shown) [CBK113292], `O=C(C1CC2C=CC1C21CC1)N1CCC(Oc2cccc(F)c2)CC1` (stereo not shown) [CBK281525] is lower in “% of control remaining” value: 104.469 for the first, 100.582 for the second.

For `COCCN1C(=O)C2(CC(=O)N(CC3CCCCC3)C2=O)c2cc(OC)ccc21` (stereo not shown) [CBK075166], the “% of control remaining” value was 104.422.
